According to PubChem BioAssay (NCI):
Values joined by “and” are separate entries in the source; they are usually repeats but may differ in a detail not shown here. Identical values can stand only once.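 Grown in 96-well plates, cells were treated for 48 hours with each compound at five concentrations. Insufficient inhibition: endpoint recorded as highest concentration tested. GI50: concentration for 50% inhibition of growth. TGI: concentration producing complete growth inhibition.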 Active and inactive are the calls of the source. No stated cut-off is given here; in the data, active means GI50 below about 0.43 µM; inactive means the rest.

Test system: NCI-H322M lung
Experiment: NCI tumour cell line growth inhibition, 48 h

Question: Which TGI does the source give for `CNc1cc(N)ccc1C(=O)N1CCC[C@H]1CO` here?
Answer: > 100 µM

Question: With `CC1(C)C[C@H]2[C@H](O)C(CO)=C3C(=O)[C@@H](O)[C@]3(C)[C@H]2C1` as the molecule, how does the TGI read?
Answer: > 100 µM

Question: With `CCN(CC)CCCN1C(=O)c2c(c(C)c3c(oc4ccc(O)cc43)c2C)C1=O` as the molecule, how does the GI50 read?
Answer: 1.68 µM

Question: And the TGI?
Answer: 3.09 µM

Question: Which GI50 does the source give for `CN(C)c1ccc(O)c2c1CC1CC3C(N(C)C)C(=O)C(C(N)=O)=C(O)C3(O)C(=O)C1=C2O` (centres undefined) here?
Answer: 12.3 µM

Question: And the TGI?
Answer: 65.6 µM

Question: Which TGI does the source give for `O=c1cc(NNc2ccc3ccccc3c2)[nH]c(=S)[nH]1` here?
Answer: > 100 µM

Question: With `Cc1ccc(-c2c(C#N)c(N)[nH]c(=S)c2C#N)cc1` as the molecule, how does the TGI read?
Answer: > 100 µM

Question: `Nc1ccccc1C(=O)CCc1c[nH]c2ccccc12` was tested. Which TGI did it give?
Answer: > 100 µM

Question: How did the TGI turn out when `COc1cc(/C=C/c2cccnc2)cc(OC)c1OC` was run?
Answer: > 100 µM

Question: `CO[C@@H](C(=O)N1Cc2[nH]nc(NC(=O)c3ccc(N4CCN(C)CC4)cc3)c2C1)c1ccccc1` was tested. Which GI50 did it give?
Answer: 2.56 µM and 1.88 µM

Question: What about the TGI of the same molecule?
Answer: > 100 µM

Question: With `CNc1ccc(S(=O)Nc2ccc(OC)cc2)cc1` (centres undefined) as the molecule, how does the TGI read?
Answer: > 100 µM

Question: `COc1ccc(N(CC(=O)O)S(=O)(=O)c2ccccc2)cc1` was tested. Which TGI did it give?
Answer: > 100 µM

Question: For `O=C(O)CCC(=O)C(=O)O`, which TGI is on record?
Answer: > 100 µM

Question: With `Clc1cccc(Cl)c1C(Nc1nncs1)Nc1nncs1` as the molecule, how does the TGI read?
Answer: 81.8 µM

Question: Which results are given for `COc1cccc(-n2ncc3c(N/N=C/c4ccc(F)cc4)ncnc32)c1`?
Answer: GI50: > 21.2 µM; TGI: > 25 µM

Question: Which results are given for `CCC(CC)COC(=O)[C@H](C)N[P@](=O)(OC[C@H]1O[C@@](C#N)(c2ccc3c(N)ncnn23)[C@H](O)[C@@H]1O)Oc1ccccc1`?
Answer: GI50: 9.41 µM; TGI: > 100 µM

Question: `CC12OC3(O)C4C5CC(C6C5C3C61)C42` (centres undefined) was tested. Which TGI did it give?
Answer: > 100 µM

Question: For `C[C@H](N)C(O)C/C=C\C/C=C\C/C=C\C/C=C\C/C=C\C/C=C\CCCCCCC(O)[C@H](C)N` (some centres undefined), which outcome is on record?
Answer: inactive

Question: For `C=C1[C@@H](OC(C)=O)[C@H]2[C@@H](OC(C)=O)[C@@](C)(OC(C)=O)C[C@]2(OC(C)=O)C(=O)[C@@H](C)/C=C/C(C)(C)C(=O)C[C@H]1OC(C)=O`, which TGI is on record?
Answer: > 100 µM

Question: Which TGI does the source give for `CN=C(NC#N)N(Cc1ccccc1)Cc1ccccc1` here?
Answer: > 100 µM

Question: For `O=NN(CCCl)C(=O)NC1CCC(C(=O)O)CC1` (centres undefined), which TGI is on record?
Answer: > 100 µM

Question: What does the source list for `CN(CCO)C1CCN(c2ccc(Nc3ncc4c5ccnc(F)c5n(C5CCCC5)c4n3)nc2)CC1`?
Answer: GI50: 6.42 µM; TGI: 24.3 µM

Question: What does the source list for `NS(=O)(=O)N(c1cc(C(F)(F)F)cc(C(F)(F)F)c1)C1CCN(Cc2ccc(C(F)(F)F)cc2)CC1`?
Answer: GI50: 7.04 µM; TGI: 16.8 µM

Question: For `CCCCCCCCNC(=O)C1=C(C)NC(C)=C(C(=O)NCCCCCCCC)C1`, which TGI is on record?
Answer: > 100 µM

Question: How did the TGI turn out when `Cc1cc(O)c(C=NC(=S)C(N)=S)c(=O)o1` was run?
Answer: > 100 µM

Question: With `[N-]=[N+]=NC1=CC(=O)c2cccc3cccc1c23` as the molecule, how does the TGI read?
Answer: > 100 µM

Question: `CN(C)c1ccc(C=NC23CC4CC(CC(C4)C2)C3)cc1` was tested. Which TGI did it give?
Answer: > 100 µM

Question: With `CCCCSSC(=S)N(CC)CC` as the molecule, how does the GI50 read?
Answer: > 100 µM

Question: What about the TGI of the same molecule?
Answer: > 100 µM

Question: `CCOC(=O)Cn1c(=O)n(C)c(=O)c2[nH]cnc21` was tested. Which TGI did it give?
Answer: > 100 µM

Question: With `CCCCC/C=C/C(=O)CCc1ccc(O)c(OC)c1` as the molecule, how does the GI50 read?
Answer: 13.6 µM

Question: And the TGI?
Answer: 28 µM

Question: How did the TGI turn out when `O=C1c2cc3c(cc2[C@@H]2NC4CCCC14O2)OCO3` (some centres undefined) was run?
Answer: > 100 µM

Question: With `C#CC[N+](CCO)(CCO)CCCCCCCCCCCCCCCCCC` as the molecule, how does the TGI read?
Answer: 27.9 µM

Question: `CS(=O)(=O)Nc1ccc(Nc2cc[nH]c3ccc4nccc4c23)cc1` was tested. Which TGI did it give?
Answer: 28.7 µM

Question: For `C=CCCC(=O)N1CCC(C(=O)OCC)C1=O` (centres undefined), which TGI is on record?
Answer: > 100 µM

Question: How did the TGI turn out when `c1ccc(C(c2ccccc2)c2ccncc2)cc1` was run?
Answer: > 100 µM

Question: Which results are given for `CC(=O)OCC1OC(OC2CCCC[Si](c3ccccc3)(c3ccccc3)O2)C(OC(C)=O)C(OC(C)=O)C1OC(C)=O` (centres undefined)?
Answer: GI50: > 100 µM; TGI: > 100 µM

Question: For `CC(C)(Oc1ccc(C(=O)c2ccc(Cl)cc2)cc1Cl)C(=O)Nc1c(Cl)cccc1Cl`, which TGI is on record?
Answer: > 100 µM

Question: `CC1(C)N([O-])[N+](=O)C1(C)Br` (centres undefined) was tested. Which TGI did it give?
Answer: > 100 µM

Question: How did the GI50 turn out when `O=C(Nc1cccc(-n2cc(-c3ccncc3)c(-c3ccc(Cl)c(O)c3)n2)c1)Nc1cccc(C(F)(F)F)c1` was run?
Answer: 6.41 µM

Question: And the TGI?
Answer: > 32.5 µM

Question: For `O=C(NNC(=O)C1CCN(S(=O)(=O)c2ccc(-c3ccccc3)cc2)CC1)c1ccc(C(F)(F)F)cc1`, which GI50 is on record?
Answer: > 50 µM

Question: What about the TGI of the same molecule?
Answer: > 50 µM

Question: How did the GI50 turn out when `O=C(C(Br)C(Br)c1ccccc1)C(Br)C(Br)c1ccccc1` (centres undefined) was run?
Answer: 7.38 µM

Question: And the TGI?
Answer: 21.9 µM

Question: Which results are given for `CCSc1ccc2c(c1)N(CCCN1CCN(C)CC1)c1ccccc1S2`?
Answer: GI50: 3.08 µM; TGI: 8.18 µM

Question: For `O=CC(NC(=O)N(CCCl)N=O)C(O)C(O)C(O)CO` (centres undefined), which GI50 is on record?
Answer: 328 µM

Question: And the TGI?
Answer: 625 µM and > 1250 µM

Question: `COc1cc(OC)c(C#N)c(OC)c1C` was tested. Which TGI did it give?
Answer: > 100 µM

Question: For `CC(=O)c1c(-c2ccco2)c(C#N)c(=S)n(C2OC(CO)C(O)C(O)C2O)c1-c1ccccc1` (centres undefined), which TGI is on record?
Answer: > 100 µM

Question: With `CC1CCC(C(C)C2C(O)CC3C4CC=C5CC(O)CCC5(C)C4CCC32C)NC1` (centres undefined) as the molecule, how does the TGI read?
Answer: 82.1 µM

Question: With `OCC(CO)C1c2cccc3ccc4cccc1c4c23` as the molecule, how does the TGI read?
Answer: > 100 µM

Question: For `CC(C)(C)C1=NC(=S)SC2=NC(=O)C3(NN21)c1ccccc1-c1ccccc13`, which TGI is on record?
Answer: > 10 µM

Question: How did the TGI turn out when `C[Si]1(C)C(c2ccccc2)=CC2C(c3ccccc3)(c3ccccc3)OC21c1ccccc1` (centres undefined) was run?
Answer: > 100 µM

Question: How did the TGI turn out when `Cn1c2ccccc2c(=NNc2ccc(S(N)(=O)=O)cc2)c2ccccc21` was run?
Answer: > 50 µM

Question: `Cc1ccc2nc3n(c2c1)C(c1c(F)cccc1F)SC3` (centres undefined) was tested. Which TGI did it give?
Answer: > 100 µM

Question: `CCOP(=O)(/C=C/n1ccc(=O)[nH]c1=O)OCC` was tested. Which TGI did it give?
Answer: > 100 µM

Question: With `O=C1c2[nH]cc(CN3CCN(CCO)CC3)c2C(=O)c2c1c(O)c1ccccc1c2O` as the molecule, how does the GI50 read?
Answer: 1.87 µM

Question: What about the TGI of the same molecule?
Answer: 9.14 µM

Question: What does the source list for `COC(=O)c1c2c(c(C)[n+]([O-])c1C)C(=O)C(NCc1cccc(Cl)c1)=CC2=O`?
Answer: GI50: 1.35 µM; TGI: 4.73 µM

Question: For `COc1ccc2c(c1)CC[C@@H]1[C@@H]2CC[C@]2(C)C(c3ccsc3)=C(/C=C/C(=O)c3ccccc3)C[C@@H]12`, which GI50 is on record?
Answer: > 100 µM

Question: And the TGI?
Answer: > 100 µM

Question: Which TGI does the source give for `Clc1ccc(C(c2ccc(Cl)cc2)c2cncnc2)cc1` here?
Answer: 31.4 µM

Question: With `CC(C)=CCc1c(O)c(CC2=C(O)C(C)=C(O)C(CC=C(C)C)(C(=O)C(C)C)C2=O)c(O)c(C(=O)C(C)C)c1O` (centres undefined) as the molecule, how does the TGI read?
Answer: > 34.6 µM

Question: Which TGI does the source give for `CN(C(=O)c1cccs1)C(=S)N1CCN(c2ccccn2)CC1` here?
Answer: > 100 µM

Question: How did the GI50 turn out when `CCN(CCCNC(=O)Cc1cc(=O)oc2cc(N(C)C)ccc12)CCNc1ccnc2cc(Cl)ccc12` was run?
Answer: 18.8 µM

Question: And the TGI?
Answer: 68.7 µM

Question: Which TGI does the source give for `Cc1cc([N+](=O)[O-])c(C)c2c1[nH]c1ccc(O)cc12` here?
Answer: > 100 µM

Question: With `N=C1N(c2ccccc2)C(=S)C(=Nc2ccccc2)N1c1ccccc1` as the molecule, how does the TGI read?
Answer: 30.9 µM

Question: With `CCCCN(CCCC)CC(O)c1ccc(OCc2ccccc2)c2ccccc12` (centres undefined) as the molecule, how does the GI50 read?
Answer: 11 µM

Question: And the TGI?
Answer: 24 µM

Question: Which results are given for `COC(=O)c1cc2cc(-c3ccc(OC)cc3)cnc2[nH]1`?
Answer: GI50: 4.73 µM; TGI: 48 µM

Question: Which TGI does the source give for `CN=c1oc2ccccc2cc1C(N)=O` here?
Answer: > 100 µM

Question: With `CN1CCN(Cc2ccc(NC(=O)c3nc4ccc5[nH]ncc5c4c4c3CCCC4)cc2C(F)(F)F)CC1` as the molecule, how does the GI50 read?
Answer: 0.793 µM

Question: What about the TGI of the same molecule?
Answer: 1.48 µM

Question: Which TGI does the source give for `CC1=C(C#N)C2C(=C(C)N1)C(N)=Nc1ccccc12` (centres undefined) here?
Answer: > 100 µM

Question: `Fc1cc(-c2cc(-c3ccccc3)n[nH]2)c(Cl)cc1Cl` was tested. Which TGI did it give?
Answer: > 100 µM

Question: `O=C1C(c2ccccc2)=C(c2ccccc2)C(c2ccc(-c3ccc(C4=C(c5ccccc5)C(=O)C(c5ccccc5)=C4c4ccccc4)cc3)cc2)=C1c1ccccc1` was tested. Which TGI did it give?
Answer: > 100 µM

Question: `Cc1ccc2c(NCCCN(C)C)c3c(C)nn(C)c3nc2c1` was tested. Which GI50 did it give?
Answer: 3.63 µM

Question: And the TGI?
Answer: 20.3 µM

Question: For `CN(CCN(C)CCN(C)C(=O)Cc1ccc(Cl)c(Cl)c1)CCN1CCCC1`, which TGI is on record?
Answer: 55 µM

Question: How did the TGI turn out when `O=C(CC1(O)C(=O)Nc2ccc([N+](=O)[O-])cc21)c1ccc2ccccc2c1` (centres undefined) was run?
Answer: > 100 µM

Question: For `CO[C@]12CC(=O)C3(C(C[C@H]4CC5CCC6=CC(=O)CC[C@]6(OC(C)=O)C5C[C@@]43C)C1)C1C[C@H]3[C@@H]4CCC5=CC(=O)CC[C@]5(OC(C)=O)[C@H]4CC[C@]3(C)C12` (some centres undefined), which TGI is on record?
Answer: > 100 µM

Question: With `C[C@]12CC[C@@H]3c4ccc(O)cc4CC[C@H]3[C@@H]1CC[C@@H]2OC(=O)CCC1CCCC1` as the molecule, how does the TGI read?
Answer: 32 µM

Question: Which TGI does the source give for `CCOC(=O)NC(=O)c1cn(-c2ccc(CCOC(=O)NCCCCCCNC(=O)OCCc3ccc(-n4c(=O)[nH]cc(C(=O)NC(=O)OCC)c4=O)cc3)cc2)c(=O)[nH]c1=O` here?
Answer: > 100 µM

Question: Which results are given for `O=[N+]([O-])c1cccc2nc3ccccc3c(NCCO)c12`?
Answer: GI50: 0.000538 µM; TGI: 0.00332 µM

Question: With `CCN(CC)c1ccc2cc(C(=O)Nc3ccccc3OC)c(=N)oc2c1` as the molecule, how does the TGI read?
Answer: > 100 µM
